# Measurements taken from the supplement of paper PMC9446081.
# Among all 39,000 compounds or so, about 220 (0.56%) showed activity. This is one part of the list.
# System: Escherichia coli K-12 BW25113
# Experiment: relative growth (OD600 normalised to plate interquartile mean) (fraction); higher = less growth inhibition, active = 0.2 or less
# Conditions: 50 µM; LB; incubation time: overnight (16-24 h)
# 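Further: static incubation at 37 °C against the wild-type strain, values averaged over two biological replicates.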
row,Compound,relative growth
1,O=C(C[C@H]1C[C@@H]2c3cc(NC(=O)Nc4ccc(C(F)(F)F)cc4)ccc3O[C@@H]2[C@@H](CO)O1)NCc1ccc(Cl)cc1,inactive: 1.03
2,CCCC/C=C/[C@H]([C@@H](O)Cc1ccccc1)N(CC#Cc1ccccc1)Cc1ccccc1Br,inactive: 1.01
3,CCCN(C)C[C@@H]1OCCCC[C@H](C)Oc2ccc(NC(=O)Cc3ccccc3)cc2C(=O)N([C@H](C)CO)C[C@@H]1C,inactive: 0.997
4,C[C@@H]1CN([C@H](C)CO)C(=O)c2cc(NC(=O)NC3CCCCC3)ccc2O[C@@H](C)CCCCO[C@@H]1CN(C)C(=O)c1ccccc1,inactive: 0.979
5,CC(C)NC(=O)N(C)C[C@H]1OCCCC[C@@H](C)Oc2ccc(NS(C)(=O)=O)cc2C(=O)N([C@@H](C)CO)C[C@H]1C,inactive: 1
6,C[C@H](CO)N1C[C@H](C)[C@H](CN(C)Cc2ccc3c(c2)OCO3)OCCCC[C@H](C)Oc2ccc(NC(=O)Nc3ccc(C(F)(F)F)cc3)cc2C1=O,inactive: 1.04
7,C[C@H](CO)N1C[C@H](C)[C@H](CN(C)Cc2ccc(Oc3ccccc3)cc2)Oc2ccc(NC(=O)Cc3ccccc3)cc2CC1=O,inactive: 0.862
8,COCCNC(=O)C[C@@H]1CC[C@H]2[C@@H](COc3ccc(NC(=O)Nc4cccc(F)c4)cc3C(=O)N2C)O1,inactive: 0.99
9,COc1ccc([C@@H]([C@H](Cc2ccccc2)OC(C)=O)N2C[C@H](CC(=O)N(C)C)[C@@H]3[C@H]([C@@H]2Cc2ccccc2)N(C)O[C@H]3c2ccccc2)cc1,inactive: 1.02
10,C[C@@H]1CN([C@@H](C)CO)C(=O)c2cc(NS(=O)(=O)c3ccccc3)ccc2O[C@@H](C)CCCCO[C@@H]1CN(C)Cc1ccc2c(c1)OCO2,inactive: 0.996
11,C[C@@H]1CN([C@H](C)CO)C(=O)c2c(c3ccccc3n2C)-c2ccccc2CO[C@@H]1CN(C)C(=O)Nc1cccc(C(F)(F)F)c1,inactive: 1.01
12,Cc1cc(C(=O)Nc2cccc3c2O[C@@H](CN(C)Cc2ccc(Oc4ccccc4)cc2)[C@@H](C)CN([C@@H](C)CO)C3=O)n(C)n1,inactive: 1.02
13,NS(=O)(=O)c1cc(C(=O)O)c(NCc2ccco2)cc1Cl,inactive: 1.12
14,C[C@@H]1CCCCO[C@H](CN(C)Cc2ccc(C(F)(F)F)cc2)[C@@H](C)CN([C@H](C)CO)C(=O)c2cc(NS(=O)(=O)c3ccc(Cl)cc3)ccc2O1,inactive: 1.05
15,C[C@@H]1CCCCO[C@H](CN(C)Cc2ccc(C(F)(F)F)cc2)[C@H](C)CN([C@H](C)CO)C(=O)c2cc(NC(=O)c3ccncc3)ccc2O1,inactive: 0.959
16,C[C@@H]1CCCCO[C@H](CN(C)Cc2ccc(C(F)(F)F)cc2)[C@H](C)CN([C@@H](C)CO)C(=O)c2cc(NC(=O)c3ccccc3)ccc2O1,inactive: 0.982
17,CC(C)NC(=O)N(C)C[C@@H]1Oc2cc(C#Cc3ccc(F)cc3)ccc2S(=O)(=O)N([C@@H](C)CO)C[C@H]1C,inactive: 1
18,C[C@@H]1CN([C@@H](C)CO)C(=O)c2cc(NS(=O)(=O)c3cn(C)cn3)ccc2O[C@H]1CN(C)C(=O)Nc1ccc2c(c1)OCO2,inactive: 1.01
19,CN(C)CC/C=C1/c2ccccc2Sc2ccc(Cl)cc21,inactive: 0.82
20,Cc1ccc(S(=O)(=O)N[C@H]2CC[C@@H](CC(=O)NCc3ccc(Cl)c(Cl)c3)O[C@H]2CO)cc1,inactive: 0.856

row,Compound,relative growth
1,Cc1ccc(S(=O)(=O)N[C@H]2C=C[C@H](CC(=O)NCCN3CCCCC3)O[C@H]2CO)cc1,inactive: 0.982
2,COc1ccc(S(=O)(=O)Nc2ccc3c(c2)C(=O)N(C)C[C@@H](OC)[C@H](C)CN(C(=O)NC(C)C)[C@H](C)CO3)cc1,inactive: 1.13
3,C[C@@H]1CN([C@H](C)CO)S(=O)(=O)c2ccc(-c3ccccc3F)cc2O[C@H]1CN(C)S(C)(=O)=O,inactive: 1
4,CN(C)C(=O)C[C@H]1CC[C@H](NC(=O)C2CC2)[C@@H](CO)O1,inactive: 0.983
5,O=C(O)c1cc(=O)c2ccccc2o1,inactive: 1.02
6,O=C(NC[C@@H](O)CO)c1c(I)c(C(=O)NC[C@@H](O)CO)c(I)c(N(CCO)C(=O)CO)c1I,inactive: 0.976
7,OC[C@H]1CC[C@@H]2O[C@H](CCc3ccc(C#CCc4ccccc4)cc3)[C@H](n3cc(-c4ccccc4)nn3)C[C@@H]2O1,inactive: 1.03
8,C[C@H](CO)N1C[C@H](C)[C@@H](CN(C)C(=O)C2CCOCC2)Oc2ncc(C#Cc3cccc(F)c3)cc2C1=O,inactive: 1.01
9,COc1ccc(NC(=O)N(C)C[C@@H]2OCCCC[C@H](C)Oc3ccc(NS(=O)(=O)c4ccccc4)cc3C(=O)N([C@@H](C)CO)C[C@@H]2C)cc1,inactive: 1.05
10,Cc1noc(C)c1NC(=O)Nc1ccc2c(c1)C(=O)N([C@H](C)CO)C[C@H](C)[C@@H](CN(C)C(=O)Nc1ccc3c(c1)OCO3)OCCCC[C@H](C)O2,inactive: 1.04
11,C[C@H](CO)N1C[C@H](C)[C@@H](CN(C)Cc2ccc(C(=O)Nc3ccccc3N)cc2)Oc2ccc(NC(=O)Cc3ccccc3)cc2C1=O,inactive: 1.01
12,C[C@@H]1CCCCO[C@@H](CN(C)C(=O)Nc2ccc(F)cc2)[C@H](C)CN([C@H](C)CO)C(=O)c2cc(NC(=O)Cc3ccccc3)ccc2O1,inactive: 1.03
13,CSc1nc(=O)cc(O)[nH]1,inactive: 1.01
14,CCO[C@H]1CC(C)(C)NC(=S)N1,inactive: 0.829
15,C[C@@H]1CN([C@@H](C)CO)C(=O)c2cc(C#C[C@@H](C)O)cnc2O[C@H]1CN(C)C(=O)CN1CCOCC1,inactive: 0.987
16,Cc1noc(C)c1S(=O)(=O)Nc1ccc2c(c1)CC(=O)N([C@H](C)CO)C[C@@H](C)[C@@H](CN(C)C(=O)Nc1ccc3c(c1)OCO3)O2,inactive: 0.997
17,CCCC(=O)Nc1ccc2c(c1)C(=O)N(C)C[C@@H](OC)[C@@H](C)CN(Cc1ccc(-c3ccccn3)cc1)[C@@H](C)CO2,inactive: 1.01
18,O=C(C1=C[C@@H](c2ccc(C(F)(F)F)cc2)C[C@@H](OCc2ccc(CO)cc2)O1)N1CCN(Cc2ccc3c(c2)OCO3)CC1,inactive: 0.984
19,CCNC(=O)C[C@H]1C=C[C@@H](NC(=O)C2CCOCC2)[C@@H](CO)O1,inactive: 1
20,Cc1ccc(-c2ccc3c(c2)O[C@@H](CN(C)C(=O)NC(C)C)[C@@H](C)CN([C@H](C)CO)S3(=O)=O)cc1,inactive: 0.961

row,Compound,relative growth
1,CCNC(=O)[C@H]1N[C@H]2c3ccc(-c4cccc(C(=O)N(C)C)c4)c(=O)n3C[C@H]2[C@@H]1CO,inactive: 1
2,C[C@@H]1O[C@@H](O[C@H]2[C@H](Oc3cc(O)c(C(=O)CCc4ccc(O)cc4)c(O)c3)O[C@H](CO)[C@@H](O)[C@@H]2O)[C@H](O)[C@H](O)[C@H]1O,inactive: 0.977
3,COc1ccc(CN(C)C[C@H]2Oc3c(NC(=O)c4ccc(-c5nccs5)cc4)cccc3C(=O)N([C@H](C)CO)C[C@@H]2C)cc1,inactive: 1.01
4,C[C@@H]1CN([C@@H](C)CO)C(=O)c2cc(C#Cc3cccc(F)c3)cnc2O[C@@H]1CN(C)C(=O)C1CCOCC1,inactive: 1.05
5,COc1cccc(S(=O)(=O)N(C)C[C@@H]2Oc3ncc(C#CC(C)C)cc3C(=O)N([C@@H](C)CO)C[C@@H]2C)c1,inactive: 1.01
6,COc1ccc(S(=O)(=O)N(C)C[C@H]2Oc3c(NC(=O)Nc4c(C)noc4C)cccc3C(=O)N([C@@H](C)CO)C[C@H]2C)cc1,inactive: 1.02
7,COc1ccc(S(=O)(=O)N(C)C[C@@H]2Oc3ccc(N(C)C)cc3C(=O)N([C@@H](C)CO)C[C@H]2C)cc1,inactive: 1.05
8,C[C@H](CO)N1C[C@H](C)[C@H](CN(C)C(=O)Nc2ccc(Cl)cc2)OCCCC[C@H](C)Oc2ccc(NC(=O)C3CCCCC3)cc2C1=O,inactive: 0.989
9,C[C@@H]1CCCCO[C@@H](CN(C)Cc2ccc(C(F)(F)F)cc2)[C@@H](C)CN([C@@H](C)CO)C(=O)c2cc(NS(=O)(=O)c3ccc(Cl)cc3)ccc2O1,inactive: 1.04
10,Cc1cn(Cc2ccccc2)c(=O)[nH]c1=O,inactive: 0.988
11,C[C@@H]1CN([C@H](C)CO)C(=O)c2cc(NC(=O)Cc3ccccc3)ccc2O[C@@H](C)CCCCO[C@H]1CN(C)C(=O)C1CCCCC1,inactive: 0.992
12,COc1cccc(S(=O)(=O)N(C)C[C@@H]2Oc3ncc(-c4cccc(C(=O)N(C)C)c4)cc3C(=O)N([C@@H](C)CO)C[C@@H]2C)c1,inactive: 1.01
13,C[C@@H]1CN([C@H](C)CO)C(=O)c2cccc(NC(=O)Nc3ccc(C(F)(F)F)cc3)c2O[C@@H]1CN(C)C(=O)Nc1ccccc1,inactive: 0.865
14,CC(C)NC(=O)N[C@H]1C=C[C@H](CC(=O)NCCCN(C)C)O[C@H]1CO,inactive: 1
15,C[C@@H]1CCCCO[C@@H](CN(C)C(=O)c2ccccc2)[C@@H](C)CN([C@@H](C)CO)C(=O)c2cc(NC(=O)Nc3ccccc3)ccc2O1,inactive: 1
16,O=C(CCc1cn(CC(=O)N2CCC3(CC2)C(=O)NCN3c2ccccc2)nn1)NO,inactive: 0.974
17,C[C@@H]1CN([C@H](C)CO)C(=O)CCCn2nncc2CO[C@@H]1CN(C)C(=O)Nc1cccc(C(F)(F)F)c1,inactive: 0.955
18,Cc1ccc(S(=O)(=O)N(C)C[C@@H]2OCCCC[C@H](C)Oc3ccc(NC(=O)Cc4ccccc4)cc3C(=O)N([C@H](C)CO)C[C@@H]2C)cc1,inactive: 1.01
19,C[C@H]1CN([C@@H](C)CO)C(=O)c2cc(NC(=O)CCCN(C)C)ccc2O[C@H]1CN(C)C(=O)Nc1ccc(F)cc1,inactive: 1.02
